Results: the supplement of paper PMC8728848
This is one part of the list.

Tests used:
Assay in all cases: glycan array binding signal (z-score within array); higher = stronger binding
Details in all cases: glycan notation: IUPAC condensed, linker removed
[1] = target: Neu5Ac(a2-6)Gal(b1-4)GlcNAc(b1-2)Man(a1-3)[GlcNAc(b1-4)][Neu5Ac(a2-6)Gal(b1-4)GlcNAc(b1-2)Man(a1-6)]Man(b1-4)GlcNAc(b1-4)GlcNAc
Procedure, shortened: (§1)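 Glycan array data came from 3228 arrays in the Consortium for Functional Glycomics database, and only arrays with an available protein sequence were kept. Glycan names were put into IUPAC-condensed notation, and columns mapping to the same glycan were averaged. The binding signal is a within-array Z-score, averaged across arrays of one protein sequence run at different concentrations or buffers and across linkers. A negative Z-score can be read as non-binding.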

[2] = target: Neu5Ac(a2-6)Gal(b1-4)GlcNAc(b1-2)Man(a1-3)[Man(a1-6)]Man(b1-4)GlcNAc(b1-4)GlcNAc
Procedure, shortened: as §1

[3] = target: Neu5Ac(a2-6)Gal(b1-4)GlcNAc(b1-2)Man(a1-3)[Neu5Ac(a2-3)Gal(b1-4)GlcNAc(b1-2)Man(a1-6)]Man(b1-4)GlcNAc(b1-4)GlcNAc
Procedure, shortened: as §1

[4] = target: Neu5Ac(a2-6)Gal(b1-4)GlcNAc(b1-2)Man(a1-3)[Neu5Ac(a2-6)Gal(b1-4)GlcNAc(b1-2)Man(a1-6)]Man(b1-4)GlcNAc(b1-4)GlcNAc
Procedure, shortened: as §1

[5] = target: Neu5Ac(a2-6)Gal(b1-4)GlcNAc(b1-2)Man(a1-3)[Neu5Ac(a2-6)Gal(b1-4)GlcNAc(b1-2)Man(a1-6)]Man(b1-4)GlcNAc(b1-4)[Fuc(a1-6)]GlcNAc
Procedure, shortened: as §1

[6] = target: Neu5Ac(a2-6)Gal(b1-4)GlcNAc(b1-2)Man(a1-6)Man(b1-4)GlcNAc(b1-4)GlcNAc
Procedure, shortened: as §1

[7] = target: Neu5Ac(a2-6)Gal(b1-4)GlcNAc(b1-2)Man(a1-6)[Gal(b1-4)GlcNAc(b1-2)Man(a1-3)]Man(b1-4)GlcNAc(b1-4)GlcNAc
Procedure, shortened: as §1

[8] = target: Neu5Ac(a2-6)Gal(b1-4)GlcNAc(b1-2)Man(a1-6)[GlcNAc(b1-2)Man(a1-3)]Man(b1-4)GlcNAc(b1-4)GlcNAc
Procedure, shortened: as §1

[9] = target: Neu5Ac(a2-6)Gal(b1-4)GlcNAc(b1-2)Man(a1-6)[Man(a1-3)]Man(b1-4)GlcNAc(b1-4)GlcNAc
Procedure, shortened: as §1

[10] = target: Neu5Ac(a2-6)Gal(b1-4)GlcNAc(b1-2)[Neu5Ac(a2-6)Gal(b1-4)GlcNAc(b1-4)]Man(a1-3)[GlcNAc(b1-4)][Neu5Ac(a2-6)Gal(b1-4)GlcNAc(b1-2)[Neu5Ac(a2-6)Gal(b1-4)GlcNAc(b1-6)]Man(a1-6)]Man(b1-4)GlcNAc(b1-4)GlcNAc
Procedure, shortened: as §1

[11] = target: Neu5Ac(a2-6)Gal(b1-4)GlcNAc(b1-2)[Neu5Ac(a2-6)Gal(b1-4)GlcNAc(b1-4)]Man(a1-3)[GlcNAc(b1-4)][Neu5Ac(a2-6)Gal(b1-4)GlcNAc(b1-4)Man(a1-6)]Man(b1-4)GlcNAc(b1-4)GlcNAc
Procedure, shortened: as §1

[12] = target: Neu5Ac(a2-6)Gal(b1-4)GlcNAc(b1-2)[Neu5Ac(a2-6)Gal(b1-4)GlcNAc(b1-6)]Man(a1-6)[Neu5Ac(a2-6)Gal(b1-4)GlcNAc(b1-2)Man(a1-3)][GlcNAc(b1-4)]Man(b1-4)GlcNAc(b1-4)GlcNAc
Procedure, shortened: as §1

[13] = target: Neu5Ac(a2-6)Gal(b1-4)GlcNAc(b1-3)Gal(b1-3)GlcNAc
Procedure, shortened: as §1

[14] = target: Neu5Ac(a2-6)Gal(b1-4)GlcNAc(b1-3)Gal(b1-4)GlcNAc
Procedure, shortened: as §1

[15] = target: Neu5Ac(a2-6)Gal(b1-4)GlcNAc(b1-3)Gal(b1-4)GlcNAc(b1-2)Man(a1-3)[Neu5Ac(a2-6)Gal(b1-4)GlcNAc(b1-3)Gal(b1-4)GlcNAc(b1-2)Man(a1-6)]GalNAc
Procedure, shortened: as §1

[16] = target: Neu5Ac(a2-6)Gal(b1-4)GlcNAc(b1-3)Gal(b1-4)GlcNAc(b1-3)Gal(b1-4)GlcNAc
Procedure, shortened: as §1

[17] = target: Neu5Ac(a2-6)Gal(b1-4)GlcNAc(b1-3)Gal(b1-4)GlcNAc(b1-3)Gal(b1-4)GlcNAc(b1-2)Man(a1-3)[Neu5Ac(a2-6)Gal(b1-4)GlcNAc(b1-3)Gal(b1-4)GlcNAc(b1-3)Gal(b1-4)GlcNAc(b1-2)Man(a1-6)]GalNAc
Procedure, shortened: as §1

[18] = target: Neu5Ac(a2-6)Gal(b1-4)GlcNAc(b1-3)Gal(b1-4)GlcNAc(b1-3)GalNAc
Procedure, shortened: as §1

[19] = target: Neu5Ac(a2-6)Gal(b1-4)GlcNAc(b1-3)Gal(b1-4)GlcNAc(b1-3)[Neu5Ac(a2-6)Gal(b1-4)GlcNAc(b1-3)Gal(b1-4)GlcNAc(b1-6)]GalNAc
Procedure, shortened: as §1

[20] = target: Neu5Ac(a2-6)Gal(b1-4)GlcNAc(b1-3)Gal(b1-4)GlcNAc(b1-6)[Gal(b1-3)]GalNAc
Procedure, shortened: as §1

[21] = target: Neu5Ac(a2-6)Gal(b1-4)GlcNAc(b1-3)Gal(b1-4)[Fuc(a1-3)]GlcNAc(b1-3)Gal(b1-4)[Fuc(a1-3)]GlcNAc
Procedure, shortened: as §1

[22] = target: Neu5Ac(a2-6)Gal(b1-4)GlcNAc(b1-3)GalNAc
Procedure, shortened: as §1

[23] = target: Neu5Ac(a2-6)Gal(b1-4)GlcNAc(b1-3)[Neu5Ac(a2-6)Gal(b1-4)GlcNAc(b1-6)]GalNAc
Procedure, shortened: as §1

[24] = target: Neu5Ac(a2-6)Gal(b1-4)GlcNAc(b1-6)GalNAc
Procedure, shortened: as §1

[25] = target: Neu5Ac(a2-6)Gal(b1-4)GlcNAc(b1-6)[Gal(b1-3)GlcNAc(b1-3)]Gal(b1-4)Glc
Procedure, shortened: as §1

[26] = target: Neu5Ac(a2-6)Gal(b1-4)GlcNAc(b1-6)[Gal(b1-3)]GalNAc
Procedure, shortened: as §1

[27] = target: Neu5Ac(a2-6)Gal(b1-4)GlcNAc6S
Procedure, shortened: as §1

[28] = target: Neu5Ac(a2-6)GalNAc
Procedure, shortened: as §1

[29] = target: Neu5Ac(a2-6)GalNAc(b1-4)GlcNAc
Procedure, shortened: as §1

[30] = target: Neu5Ac(a2-6)GalNAc(b1-4)GlcNAc6S
Procedure, shortened: as §1

[31] = target: Neu5Ac(a2-6)GlcNAc(b1-4)GlcNAc
Procedure, shortened: as §1

B1: AFCNVH (Aspergillus fumigatus) (protein)
chain: MSLRGFHTTCDTIVLKDKHILSSRCKRPDGTYSFSEIDLNDCLGNNNGKFVWGGESFVDSASQVNLALEGGEGRPMLHAQLNDWHGSVQSASVNLGECIQNEAGGLEYMHC
glycan array binding signal (z-score) [1]: -0.066 | glycan array binding signal (z-score) [2]: -0.332 | glycan array binding signal (z-score) [3]: -0.385 | glycan array binding signal (z-score) [4]: 0.006 | glycan array binding signal (z-score) [5]: -0.201 | glycan array binding signal (z-score) [6]: -0.343 | glycan array binding signal (z-score) [7]: -0.371 | glycan array binding signal (z-score) [8]: -0.269 | glycan array binding signal (z-score) [9]: -0.287 | glycan array binding signal (z-score) [10]: -0.842 | glycan array binding signal (z-score) [11]: -0.986 | glycan array binding signal (z-score) [12]: -0.483 | glycan array binding signal (z-score) [13]: -0.318 | glycan array binding signal (z-score) [14]: -0.452 | glycan array binding signal (z-score) [15]: -0.303 | glycan array binding signal (z-score) [16]: -0.208 | glycan array binding signal (z-score) [17]: -0.157 | glycan array binding signal (z-score) [18]: -0.684 | glycan array binding signal (z-score) [19]: -0.26 | glycan array binding signal (z-score) [20]: -0.506 | glycan array binding signal (z-score) [21]: -0.063 | glycan array binding signal (z-score) [22]: -0.641 | glycan array binding signal (z-score) [23]: -0.368 | glycan array binding signal (z-score) [24]: -0.366 | glycan array binding signal (z-score) [25]: -0.341 | glycan array binding signal (z-score) [26]: -0.439 | glycan array binding signal (z-score) [27]: -0.494 | glycan array binding signal (z-score) [28]: -0.551 | glycan array binding signal (z-score) [29]: 1.32 | glycan array binding signal (z-score) [30]: 0.433 | glycan array binding signal (z-score) [31]: 2.45
